# About 410 (8.5%) of roughly 4,800 compounds showed an effect of 50% or more. This is one part of the list.
# System: Plasmodium falciparum
# Test: Confirmatory screen in NF54 pLDH assay, in single point, at 2uM, 72h
# Assay type: functional, Erythrocyte
# Conditions: timepoint 72 hour
row,SMILES,% Inhibition
1,CCOC(=O)COc1ccc(C)cc1-c1ccno1,14%
2,CCOC(=O)c1nc(-c2ccc(N(CC)CC)nc2)no1,6%
3,Cc1nnc2ccc(S(=O)(=O)N(Cc3ccccc3F)c3ccccc3)cn12,-16%
4,COc1ccc(CC[C@@H]2NCCn3cccc32)cc1,-12%
5,Cc1ccc(S(=O)(=O)N2CCC(c3csc(N)n3)CC2)cc1,-12%
6,O=C1CCC(Nc2ccc(Br)cn2)C(C2CC2)N1 (centres undefined),15%
7,CCOc1ccc(CCN2C(=O)c3c(C(=O)OC)ncn3C[C@@]2(C)C(=O)NC2CCCCCC2)cc1,12%
8,O=C(O)C1C2C=CC(O2)C1C(=O)NC1CCCc2ccccc21 (centres undefined),-4%
9,CCOC(=O)C(Cc1ccc(OCc2c(F)cccc2Cl)cc1)(NC(C)=O)C(=O)OCC,7%
10,Nc1cc(C(F)(F)F)c(Br)cc1Br,-14%
11,O=C(COc1ccccc1)Nc1ccc2c(c1)C(O)=Nc1cccnc1O2,64%
12,O=C(O)C1C2C=CC(C2)C1C(=O)Nc1cccc2ncccc12 (centres undefined),9%
13,Cc1ccc(Nc2[nH]nnc2C(=O)N[C@H]2CCc3ccccc32)cc1C,9%
14,O=C(Nc1ccccc1)N1CCc2scc[n+]2-c2ccccc21,7%
15,Cc1nc(-c2ccccc2)cc2nn(CC(=O)NC3CCCCC3)c(=O)n12,-8%
16,O=C(NC1CC(c2ccccc2)C1)N1CCS(=O)(=O)CC1 (centres undefined),-6%
17,Cc1ccnc(Nc2ccc(N3CCNCC3)nn2)c1,65%
18,CCOC(=O)N1CCC(NC(=O)c2cn[nH]c2-c2ccc(OCC)c(Cl)c2)CC1,10%
19,O=C(NCc1cccc(Br)c1)c1ccc(Cl)c(-n2cnc3cccnc32)c1,7%
20,Cc1cc(NC(=O)c2ccccn2)n(-c2nc3ccccc3o2)n1,93%
21,NC(=NCCOc1ccc(Br)cc1)N1CCOCC1,8%
22,Cc1ccc(NC(=O)CC(C)(C)CC2=Nc3ccccc3S(=O)(=O)N2)cc1F,6%

row,SMILES,% Inhibition
1,Cc1cc(C(=O)NCC(=O)NC(C)(C)C)no1,12%
2,O=C(O)C1Cc2c([nH]c3ccccc23)C(/C=C/c2ccccc2)N1 (centres undefined),10%
3,CC(=O)c1cccc(NC(=O)[C@@]23CCC(=O)N2c2ccccc2C(=O)N3C)c1,88%
4,Cc1ccc([C@@H]2C=C(C(=O)O)Nc3c(C(N)=O)nnn32)cc1,-12%
5,Cc1cc(C)c2nc(C)cc(Nc3ccc(O)cc3)c2c1,103%
6,NC(=O)c1nnn2c1C(=O)N[C@H](c1ccc(Cl)cc1)C2,-13%
7,O=C(c1cnc2ccc(F)cc2c1N1CCN(c2ccccn2)CC1)N1CCCC1,8%
8,Clc1cc(CN2CC[C@@]3(CCCOC3)C2)ccc1OCCN1CCOCC1,11%
9,CCc1ccc(C(=O)N2CC[C@H](CC(=O)NCc3ccccc3)C2)cc1,10%
10,COc1cc([C@H](CC(=O)NC2CCN(Cc3ccccc3)CC2)N2Cc3ccccc3C2=O)cc(OC)c1OC,28%
11,COc1cc(=O)c(C(=O)NCCN2CCCCC2)nn1-c1ccc(F)cc1,0%
12,O=C(c1cc2ccccc2[nH]1)N1CCc2sc(Cl)cc2C1,5%
13,Fc1ccc(C2=C[C@@H](c3ccc(Cl)cc3)N3N=C(c4ccc(Cl)cc4)NC3=N2)cc1,97%
14,CN(C)C(=O)[C@H]1CCN(c2nc3cc(C(F)(F)F)ccc3s2)C1,-8%
15,CCCN(CCC)CCN1C(=O)[C@@H]2C(C(=O)Nc3cc(Cl)cc(Cl)c3)[C@@H]3C=C[C@]2(O3)C1C(=O)NC1CCCCC1 (some centres undefined),50%
16,CCCN(CC1CC1)C(=O)C1CCN(Cc2cccc3ccccc23)CC1,-23%
17,CS(=O)(=O)N[C@@H](Cc1ccccc1)c1cccs1,5%
18,N#Cc1ccc(CNc2cnc3ccccc3c2)o1,-16%
19,Cn1ccc(NC(=O)C(=O)c2ccc(-c3ccccc3)cc2)n1,11%
20,Cc1cc(CS(=O)(=O)[C@@H](C)C(=O)NCC(C)C)on1,12%
21,Cc1nnc2ccc(S(=O)(=O)Nc3cc(F)cc(F)c3)cn12,0%
22,O=C1CN(Cc2ccc(F)cc2)C(=O)N1[C@@H]1C[C@H]2CC[C@@H]1O2,12%

row,SMILES,% Inhibition
1,CCC(C)c1ccc(NC(=O)N2CC(c3ccccc3)C(c3ccc(Cl)cc3)=N2)cc1 (centres undefined),11%
2,O[C@@H](CNc1cc(-c2ccccc2)nc2ncnn12)COCC1CC1,3%
3,O=C1C(c2ccccc2)=NOC12CCCCC2,-4%
4,CC1=CCN(C(=O)Nc2nccs2)CC1,5%
5,Cc1nc2ncnn2c(N2CCc3nc(N)sc3C2)c1C,-4%
6,CCN(CC)c1ncnc(N(C)Cc2ccccc2)c1N,9%
7,CN(C(=O)c1ccccc1Br)C(C)(C)C,-5%
8,CCN(CC(C)(C)O)C(=O)C1CCCCCC1,-8%
9,CCn1cc(Cl)c(-c2nnc(-c3cccs3)o2)n1,0%
10,O=C1[C@@H]2CCCN2c2ccc(S(=O)(=O)N3CCOCC3)cc2N1Cc1cccc(C(F)(F)F)c1,-20%
11,Cc1cc(C)c(S(=O)(=O)n2ccc(-c3cccc(OCc4ccc(Cl)cc4Cl)c3)n2)c(C)c1,-7%
12,[2H]C1([2H])NC([2H])([2H])C([2H])([2H])N(S(=O)(=O)c2ccc(OCC)c(-c3nc(=O)c4c([nH]3)c(CCC)nn4C)c2)C1([2H])[2H],0%
13,COc1ccccc1Cn1cnc2c1c(=O)n(C1CCCCC1)c(=O)n2-c1ccccc1Cl,90%
14,O=C1N(c2ccccc2)CN(C2CCCCC2)CN1c1nc(-c2ccccc2)cs1,0%
15,COCCO[C@H]1CCOC2(CCN(C(=O)Cc3cccc(C)c3)CC2)C1,14%
16,Cc1cc2nccc([C@H](C)Oc3ccc(-c4ccccc4)c(F)c3)n2n1,11%
17,Cc1cccc(N2CCN(c3ncc4c(=O)n(-c5ccc6c(c5)OCO6)c(=O)[nH]c4n3)CC2)c1,-1%
18,CCOc1ccc(C2C(C(=O)O)CCC(=O)N2C2CCCCC2)cc1 (centres undefined),10%
19,Cc1ccc(S(=O)(=O)N2CCC[C@H](C(=O)NCc3cccc(NC(=O)N4CCCC4)c3)C2)s1,8%
20,O=c1cc2c(nn1Cc1ccccc1Cl)-c1ccccc1CC2,0%
